Measured values from the supplement of paper PMC3334620.
Over roughly 33,000 sequences, “E-score (-0.5 to 0.5)” has its median near -0.043; the highest 2% begin near 0.37. The list shows a part of the results.

molecular target: T1, Upc2 (UniProt Q12151); test: PBM E-score (8-mer binding enrichment) (E-score (-0.5 to 0.5)); higher = stronger / more preferred TF binding; most listed sequences are background and not binding sites; details: protein concentration: 200 nM; construct: GST-full length
T1 sequence: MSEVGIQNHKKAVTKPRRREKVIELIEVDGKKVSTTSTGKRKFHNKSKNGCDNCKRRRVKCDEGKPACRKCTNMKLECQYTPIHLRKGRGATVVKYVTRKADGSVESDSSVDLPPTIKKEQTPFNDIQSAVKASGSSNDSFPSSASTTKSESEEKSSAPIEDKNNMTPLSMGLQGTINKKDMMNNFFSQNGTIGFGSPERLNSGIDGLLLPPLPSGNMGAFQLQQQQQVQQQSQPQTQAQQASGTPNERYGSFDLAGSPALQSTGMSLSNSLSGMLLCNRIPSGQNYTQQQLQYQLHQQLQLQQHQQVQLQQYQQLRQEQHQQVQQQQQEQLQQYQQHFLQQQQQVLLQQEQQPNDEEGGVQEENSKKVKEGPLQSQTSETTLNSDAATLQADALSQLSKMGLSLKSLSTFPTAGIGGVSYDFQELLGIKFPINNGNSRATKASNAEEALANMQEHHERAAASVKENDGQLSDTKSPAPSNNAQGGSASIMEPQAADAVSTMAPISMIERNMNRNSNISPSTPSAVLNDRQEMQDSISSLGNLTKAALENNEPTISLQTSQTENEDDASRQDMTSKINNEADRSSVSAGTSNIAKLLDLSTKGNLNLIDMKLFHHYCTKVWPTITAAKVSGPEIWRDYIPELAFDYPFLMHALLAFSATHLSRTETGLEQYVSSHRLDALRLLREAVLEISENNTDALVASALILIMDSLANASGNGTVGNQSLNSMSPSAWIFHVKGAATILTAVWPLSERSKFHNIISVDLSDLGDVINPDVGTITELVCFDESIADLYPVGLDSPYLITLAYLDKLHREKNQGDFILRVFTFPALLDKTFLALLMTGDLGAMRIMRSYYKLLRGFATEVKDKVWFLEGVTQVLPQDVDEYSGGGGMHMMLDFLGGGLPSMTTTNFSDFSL
In short: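 Yeast transcription factors carrying a GST tag, as full-length proteins or DNA-binding domains, were produced by PURExpress in vitro transcription/translation. About 100-200 nM protein was applied to universal all-10-mer Agilent arrays, double-stranded by primer extension on fresh or once-stripped slides. Bound protein was detected with fluorescent anti-GST, and scans were normalised with masliner. The Universal PBM Analysis Suite gave each ungapped eight-base word, pooled with its reverse complement, an E-score, a modified Wilcoxon-Mann-Whitney statistic.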

Sequence	PBM E-score
GGAGGAAA	-0.052
GTGCTGCA	-0.253
CCCGGAGA	-0.0247
CGTGAAAA	0.111
GCTGACGA	-0.0868
ATCAGGGC	0.0213
CTTCATCA	-0.0638
CGATAGGC	-0.00928
AGGGACTA	-0.242
ATGGTGAC	-0.141
CAGAACTC	-0.2
AATGATGG	-0.00188
AATTCCCG	-0.0145
CAAGAATG	-0.233
GATAACAC	-0.037
AGGTATCC	-0.00567
ACATACAC	0.121
CAATGTTA	-0.0331
CGGGACAC	-0.0693
AAAACTGG	-0.105
ACCTCGCC	-0.0273
ACAGCACT	-0.0782
TATACATA	0.114
CGAAGCAC	-0.0203
GGCGACCA	-0.311

Sequence	PBM E-score
GGCTGTTA	-0.0733
GTAGAACA	-0.0692
AACTAATT	-0.0886
CGTCGTTA	0.376
GCTTTCTA	-0.00187
CACACAAG	-0.133
GCTTTAGA	0.0153
AGGATATA	-0.185
CCAGTGTA	0.0133
ACAGCATG	-0.00586
AATAGCCT	-0.081
TCAGTTAA	-0.071
ACTGCATG	-0.0391
CCATCTGA	-0.0848
CAAGCAAA	-0.0667
TTCAAAAA	-0.0757
TAAGCTTA	-0.0247
CACACATC	-0.24
GTCGGACA	0.131
TGGAGACA	-0.154
TAGCCTAA	-0.0607
GTAGGGAC	-0.192
ACTGGTGC	-0.11
GAGGCGGC	-0.0405
CATATGAG	-0.0883

Sequence	PBM E-score
GGCAGGAA	-0.24
GTACGGTA	0.365
ACCAAGAC	-0.0288
ATCCGAAA	0.166
CTCTTCGA	0.0167
CCGCGAGG	-0.00963
AGTCTCCC	-0.212
AGCGGACG	0.0725
CGCTGAAA	-0.0593
AGCTATAT	0.00328
TCAATTCA	-0.00862
GCCTCCTA	-0.322
GGGCGAGA	-0.183
CCCTTCCC	-0.26
CTAAGACC	-0.109
CTCCATAA	-0.23
AAGTGCCG	0.0101
GCTGGACA	-0.251
AAAAAACC	-0.0385
AGAGCCAA	-0.0745
TGGGACCA	-0.236
GAGTAAAA	-0.0456
ACTAAATG	-0.174
CAGGAAGC	-0.0476
GCGTGCAA	-0.0529

Sequence	PBM E-score
AGTGCCAC	-0.207
AAAACCGG	-0.11
AAGCTGGG	-0.281
AGATGTCC	-0.0285
GCCCACGA	-0.148
GTGCGATA	0.00531
ACTATGTA	0.0442
ATGACTTG	-0.17
ACTCCAAT	-0.0144
GCGTGAAA	0.0202
TCCTCCAA	-0.215
CTGAACTC	-0.177
ATGACTGC	-0.144
GAGTGTGC	-0.0494
AATACCCG	0.114
CTGGCAAA	-0.0535
ATCTTCGA	-0.0389
GAGCGCCC	-0.211
CACAATTC	-0.0348
TACATAAA	-0.0479
GAGAATGC	0.147
CCCCAAGC	0.0443
CGGCCGAG	0.0445
ACAACGCC	-0.0512
TCAATAGA	-0.114

Sequence	PBM E-score
CCTAGGGA	-0.243
ATGGCCTC	-0.144
AACCGAGC	0.325
AGCGAGTC	0.171
AGTGCAAG	0.157
CGTGATTC	-0.208
ACGGGGGC	0.109
TCGCCACA	0.0491
CATAGTAA	0.0847
CCTTTGAA	-0.177
GGGGCCGA	-0.161
CTGTGGCA	-0.2
TAGATCCA	-0.133
AAGGTACT	0.00877
ACTATCAC	0.0913
CAAAGTGC	-0.207
GATCCTAC	0.0781
ACTCCCCT	-0.143
CGCCACAA	0.102
TGGTGACA	-0.101
CCAGACAG	-0.187
ATCGCGAT	0.187
ATCTCTGG	-0.144
CGCTGGTC	-0.189
AGGTGTAA	-0.059

Sequence	PBM E-score
AAGTACCC	-0.113
CATATATC	0.114
ATCTGGCG	-0.204
ACTCGTAA	0.433
CCTGTTAG	0.0807
GAGGCGGA	-0.107
CCAACAGC	-0.25
GACCTTAC	0.0154
CGTGAATA	0.0229
CGGATTAG	-0.0333
TCCGCAAA	-0.052
GCGGCTGA	-0.15
AACGTCCA	-0.0485
AAGATCTA	-0.054
CCCTATAC	0.342
CCCGGTGC	-0.228
ATTGGCGG	-0.11
ACCCCAAG	-0.108
ATCGGACA	0.121
CGGAAGCA	0.11
ATCTAACA	-0.0339
ATGGAGCG	-0.0147
CGGCGGTA	0.129
GGGAAGGA	-0.112
GTTATAGA	0.0588

Sequence	PBM E-score
AAAAAATG	0.104
CCAACGGC	-0.232
AACTCACG	0.036
TAGTGAGA	-0.00677
CCTATACG	0.487
TAGTTCAA	-0.083
AGTGGTCG	0.103
GGAGTCCC	-0.172
GGCTACTA	-0.0652
CTCGATGC	-0.188
GCCGAGAC	-0.0867
CACTCCGC	-0.133
GCACTCCA	-0.195
ACTTTCAG	-0.184
CATATCTC	-0.176
ACGATCAT	0.3
GGTACGAC	0.475
CATCCCAA	-0.182
CAGACAGA	-0.125
AGCCCAAT	-0.0729
CCACTGGG	-0.293
CCTTTGTA	-0.134
AGGCAATC	-0.118
ACTTTTCA	-0.0685
GTCGGCAC	-0.162

Sequence	PBM E-score
ACGAATGC	0.285
AAGTACGT	0.154
CGGGATCA	-0.0211
ATCGCTTG	0.0802
TATGGAAA	0.039
CGGACATC	-0.0586
CGCCGAAA	0.0504
CGCGGACC	-0.165
AGTGGATC	-0.0691
ATATGGCG	0.0195
GGTCAAGA	-0.293
CAGGGTAA	-0.14
CCTACTAG	0.0192
CAGGATCA	-0.152
AGCACACG	-0.00629
AAAATAAC	-0.00089
CACGTGAA	0.148
ACCTACAT	-0.0971
CGCAAGAG	-0.107
GGGGCTAC	0.00857
ACGGTACT	0.0352
GGATAGAC	-0.0704
AACATGAT	-0.106
CACGAACC	0.101
AAGCGATC	0.228

Sequence	PBM E-score
TAATCCTA	-0.0162
AAACACAC	0.118
AAAACCCG	0.0883
CTATTCAC	-0.0816
AAGAGTGT	-0.123
CAAGAAGA	-0.326
GGGTTAGA	-0.23
CATCAACG	0.0394
ACATCACT	0.0925
GATAGGAC	-0.289
TGGTACCA	-0.203
ACGACATG	0.336
CAGCAATC	-0.0209
GCTGGGGA	-0.149
CTCGCACA	0.27
CTGACAGC	-0.144
GCATTACA	-0.143
CAAAAACC	0.0158
AACTAAGT	-0.0887
